From PubChem BioAssay AID1347073 (National Center for Advancing Translational Sciences (NCATS), 2019)
About 200 (0.44%) of roughly 45,000 compounds were called active. Roughly 7% stayed inconclusive and do not appear here. Calls follow the shape of the dose curve; as a rule, active = well fitted activation curve with a large enough effect; inconclusive = small, poorly fitted or top-dose-only effect; inactive = no such curve, though single readings can be large or run the other way. The list shows a part of the results.

Assay: qHTS of TDP-43 Inhibitors: NCGC Sytravon Library Screen; also: 0% is about no effect; nearly all actives have a fitted effect of over 55% in size
Details: yeast TDP-43 toxicity rescue, BacTiter-Glo growth, 24 h; series mostly up to 46.1 µM; growth rescue (activation): at the top concentration
Summary of the method: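 TDP-43-expressing yeast, pregrown in raffinose, seeded at OD600 0.02 in galactose medium with compound for 24 hr at 30 deg C. Growth read by BacTiter-Glo luminescence, so rescue of toxicity appears as activation.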

| Structure (SMILES) | growth rescue (activation) |
| --- | --- |
| Cc1ccccc1C(=O)NCC(=O)Nc1ccccc1C(F)(F)F | inactive: -0.33% |
| COc1cc(NC(=O)CN2C(=O)NC(c3ccccc3)(c3ccccc3)C2=O)c(C)cc1[N+](=O)[O-] | inactive: -24.3% |
| COc1cc2c(=O)n(CCC(=O)NCC3CCCO3)c(=O)n(CC(=O)Nc3ccccc3C)c2cc1OC (stereo not drawn) | inactive: 8.55% |
| C=CCn1c(=O)c2c(nc3n2CCCN3CCc2ccc(OC)c(OC)c2)n(C)c1=O | inactive: 7.46% |
| COc1cccc2c1cc1c(=O)n(CC(=O)N3CCN(c4cccc(C)c4C)CC3)nc(C)n12 | inactive: -10.9% |
| O=[N+]([O-])c1ccc(Cl)c2cccnc12 | inactive: 9.54% |
| Cc1ccc(CNC(=O)C2CCN(S(=O)(=O)N3CCCCC3)CC2)cc1 | inactive: 15.1% |
| COc1cc(/C=N/n2c(=S)[nH]nc(C)c2=O)cc([N+](=O)[O-])c1O | inactive: -2.16% |
| CCOc1ccc(NC(=S)NCc2ccco2)cc1 | inactive: 21% |
| Cc1ccc(NC(=S)NCC2CCN(C(C)c3ccccc3)C2)cc1 (stereo not drawn) | inactive: -5.92% |
| CCCCCC(O)(c1ccc(OC)cc1)C(CN1CCOCC1)c1ccccc1 (stereo not drawn) | inactive: 6.6% |
| CC(=O)c1cccc(NC(=O)C2CC(=O)N(C3CCCC3)C2)c1 (stereo not drawn) | inactive: 18.2% |
| CC1CCN(S(=O)(=O)c2ccc3c(c2)CCN3C(=O)Nc2ccccc2Br)CC1 | inactive: -9.34% |
| COc1ccc(CNC(=O)CSc2nc3ccc(N)cc3s2)cc1 | inactive: 30.8% |
| CC(=O)NC(Cc1ccccc1F)C(=O)NC1CCN(c2ncccc2[N+](=O)[O-])CC1 (stereo not drawn) | inactive: 1.19% |
| CSc1ccc(Cl)c(C(=O)NNC(=O)c2cccs2)c1 | inactive: 29.9% |
| COc1ccc(Cn2c(=O)[nH]c3cc(C(=O)NCCCOC(C)C)ccc3c2=O)cc1 | inactive: -0.599% |
| CN(C)CCNC(=O)c1sc2nc(-c3ccccc3)cc(C(F)(F)F)c2c1N | inactive: 6.32% |
| O=C(NNC(=O)c1cccs1)c1ccc(S(=O)(=O)N2CCCCC2)cc1 | inactive: 13.5% |
| C/C(CC(=O)Nc1ccccc1C#N)=N\NC(=O)c1ccncc1 | inactive: -4.23% |
| O=C(NCCCN1CCCCCC1)c1cc2c(=O)oc3ccccc3c2s1 | inactive: -6.92% |
| C[C@]12CC[C@H](O)CC1=CCC1C2CC[C@@]2(C)C1CC[C@@H]2NC(=O)[C@@H](N)CO (stereo partly drawn) | inactive: 1.59% |
| COCc1c(C(=O)N(C)Cc2ccccc2N2CCCC2)oc2ccccc12 | inactive: 17.7% |
| COc1cc(-c2cc(C(=O)Nc3cccc(S(=O)(=O)N(C)C)c3)c3ccccc3n2)cc(OC)c1OC | inactive: 7.25% |
| O=C1C/C(=C\c2c(F)cccc2Cl)N2CCC1CC2 | inactive: -3.45% |
| COc1ccc(Br)cc1-c1nc2c(c(=O)[nH]c(=O)n2Cc2ccccc2)n1C | inactive: 20.2% |

| Structure (SMILES) | growth rescue (activation) |
| --- | --- |
| Cc1ccc(CN(C)c2ccc(S(=O)(=O)N3CCCC3)cn2)cc1 | inactive: 1.72% |
| CCOC(=O)C1C(=O)NC(c2ccccc2)=NC1c1ccc(OC)cc1 (stereo not drawn) | inactive: -0.733% |
| CCOC(=O)c1cc(CC)sc1N1C(=O)CC(Sc2ccccc2C(=O)O)C1=O (stereo not drawn) | inactive: -3.56% |
| Cc1ccc(NC(=O)c2n[nH]c(=O)c3ccccc23)cc1S(=O)(=O)N1CCOCC1 | inactive: 13.7% |
| COc1ccc(NC(=O)CSc2nnc(NC(=O)CN3CCOCC3)s2)cc1 | inactive: 3.58% |
| Cc1ccc(OCC(=O)NNC(=O)C(=O)NC(C)(C)C)cc1 | inactive: -6.33% |
| Cn1cc(C(=O)N/N=C/c2cccc(O)c2)ccc1=O | inactive: -5.26% |
| Cc1cc2cc(CN(Cc3cccs3)C(=S)NCc3ccco3)c(=O)[nH]c2cc1C | inactive: -7.38% |
| OC[C@@H]1CN(CCN2CCOCC2)C[C@H](n2cnc3c(NCc4ccc(F)cc4)ncnc32)O1 | inactive: -6.52% |
| Cn1c(=O)cc(SCC(=O)N2CCCC2)c2ccccc21 | inactive: 23.7% |
| O=C(COc1ccc(/C=N/NS(=O)(=O)c2ccccc2)cc1)NCc1ccccc1 | inactive: 17.2% |
| CN1CCC(OC(=O)c2ccccc2Cl)CC1 | inactive: -6.93% |
| Cc1ccc(N(C(=O)CNC(=O)c2ccco2)C(C(=O)NC2CCCCC2)c2ccncc2)c(C)c1 (stereo not drawn) | inactive: 9.28% |
| Cc1ccc(C(=O)COC(=O)c2nc(Cl)ccc2Cl)cc1 | inactive: 40.6% |
| O=C(O)c1cccc(S(=O)(=O)Nc2ccc(-c3ccccc3)cc2)c1 | inactive: 20.1% |
| CSc1nsc(SC)c1C(=O)O | inactive: -6.56% |
| COC(=O)c1ccc(NC(=O)c2ccc3nccnc3c2)cc1 | inactive: 1.62% |
| Cc1cccnc1CCNC(=O)CCc1nnc(CCc2ccccc2)o1 | inactive: 11.2% |
| CSc1ccc(C(=O)C2CCCN(C(=O)c3cc4cc(F)ccc4[nH]3)C2)cc1 (stereo not drawn) | inactive: -4.19% |
| O=C(Nc1ccccc1Br)c1cc[n+]([O-])cc1 | inactive: 9.81% |
| Cc1noc(C)c1COc1ccc(C(=O)N2CCN(S(=O)(=O)c3cccc(F)c3)CC2)cc1 | inactive: -4.22% |
| CCNC(=O)NC(=O)CSc1nnc(-c2c[nH]c3ccccc23)o1 | inactive: -18.9% |
| Nc1cc(-c2ccco2)no1 | inactive: 17.4% |
| O=C(CN(Cc1ccco1)C(=O)c1ccc(Cl)cc1)Nc1ccc(Cl)c(Cl)c1 | inactive: 6.44% |
| Cc1nc(CC(=O)NNS(=O)(=O)c2ccc3ccccc3c2)cs1 | inactive: 12.1% |
| NS(=O)(=O)c1cc(C(=O)NNC(=O)c2ccc3c(c2)OCO3)ccc1Cl | inactive: 11.7% |

| Structure (SMILES) | growth rescue (activation) |
| --- | --- |
| Cc1ccccc1COc1ccc(-c2nnn(CC(=O)O)n2)cc1 | inactive: 4.11% |
| COc1ccc2nc(/N=C/c3cccc(OC)c3O)sc2c1 | inactive: -16.7% |
| O=C(C[n+]1ccc(-c2cc(C(=O)Nc3cccc(C(F)(F)F)c3)c3ccccc3n2)cc1)c1cccc([N+](=O)[O-])c1 | inactive: 4.51% |
| CCOc1ccc(NCc2cccn2-c2nnc(N3CCC(C(=O)NCC(C)c4ccccc4)CC3)s2)cc1 (stereo not drawn) | inactive: 7.87% |
| COc1cc(C)ccc1OC(C)C(=O)Nc1ccc(N2CCCCC2)cc1 (stereo not drawn) | inactive: 26.1% |
| O=C(CCC(=O)N1CCN(c2ccc(F)cc2)CC1)c1ccc(F)cc1 | inactive: 9.81% |
| Cc1ccc(S(=O)(=O)NC(=O)C2(C)CCN2C(=O)Cc2ccc(-c3ccccc3)cc2)nc1 (stereo not drawn) | inactive: 3.53% |
| CCOc1ccc(/C=C2\SC(=S)N(CCC(=O)Nc3ccccc3C(=O)O)C2=O)cc1 | inactive: 7.36% |
| O=C(O)C1CCCN1C(=O)C1CCN(S(=O)(=O)c2cccc(C(F)(F)F)c2)CC1 (stereo not drawn) | inactive: 24.5% |
| Cc1cc(OCCCCCn2ccnc2)cc(C)c1Cl | inactive: 10.5% |
| COc1c(C)cc(C(O)c2ncc(-c3cccc(F)c3)[nH]2)cc1C (stereo not drawn) | inactive: 2.33% |
| COc1ccccc1C(=O)C1CCCN(Cc2ccc3c(c2)OCCO3)C1 (stereo not drawn) | inactive: 29% |
| CC(C)(C)NS(=O)(=O)c1ccc2nc(NC(=O)c3ccc(N4C(=O)CCC4=O)cc3)sc2c1 | inactive: 5.11% |
| O=C(O)CC(Cc1ccc(Cl)cc1)C(=O)NCc1ccccc1 (stereo not drawn) | inactive: 9.25% |
| CCn1c(SCC(=O)NC2CCCCC2)nnc1-c1cccnc1 | inactive: 11.4% |
| O=[N+]([O-])c1ccc(-c2nnc3cccc(Cl)n23)cc1 | inactive: 7.44% |
| COc1ccc(NS(=O)(=O)c2cc(NC(=O)c3ccc(Cl)cc3)ccc2N2CCOCC2)cc1 | inactive: 14.9% |
| Cc1nc(N)sc1N=Nc1c(C)n(C)n(-c2ccccc2)c1=O | inactive: 7.43% |
| COc1cccc(-c2nc(Oc3cccc(C)c3C)c3ccccc3n2)c1O | inactive: 11.3% |
| Cn1nc(C(C)(C)C)cc1C(=O)N1CCCC(c2cc(C(=O)NCc3ccccc3)no2)C1 (stereo not drawn) | inactive: 8.12% |
| CN(C)c1ccc(CN(Cc2ccco2)C(=O)c2ccc(C(C)(C)C)cc2)cc1 | inactive: 14.4% |
| CC1CC(C)CN(CCCNC(=O)c2cn(C)c3ccc(S(=O)(=O)N4CCCC4)cc3c2=O)C1 (stereo not drawn) | inactive: 3.96% |
| O=C(Nc1ccc(F)cc1)N(CCCN1CCOCC1)Cc1cc2cc3c(cc2[nH]c1=O)OCCO3 | inactive: -11.8% |
| CCCOc1ccc(C(=O)Nc2ccc3oc(-c4ccncc4)nc3c2)cc1 | inactive: 15.7% |
| CC1CCN(CC(=O)Nc2sc3c(c2C#N)CCC3)CC1 | inactive: -2.25% |
| CC(OC(=O)C1=COCCO1)C(=O)NC1(C#N)CCCCC1 (stereo not drawn) | inactive: -4.5% |

| Structure (SMILES) | growth rescue (activation) |
| --- | --- |
| CN(CC(=O)NCCCN1CCOCC1)S(=O)(=O)c1ccc(Br)cc1 | inactive: 14.7% |
| Cc1ccc(C)c(S(=O)(=O)Nc2ccc(-n3cnnn3)cc2)c1 | inactive: 11% |
| Cc1cc2c(=O)n(C)c(SCC(=O)Nc3cccc(F)c3)nc2s1 | inactive: -21.6% |
| O=Cc1cc([N+](=O)[O-])ccc1N1CCN(Cc2ccc3c(c2)OCO3)CC1 | inactive: -10.2% |
| COc1ccc(OCCN2CCN(S(=O)(=O)c3ccccc3C#N)CC2)cc1 | inactive: -6.86% |
| Cc1ccc(N(C(=O)c2csnn2)C(C(=O)NC2CCCC2)c2cccnc2)c(C)c1 (stereo not drawn) | inactive: -14.5% |
| O=C(CCCOc1ccccc1)Nc1ncccn1 | inactive: -15% |
| COc1ccc(/C=C/C(=O)NC(=S)NNC(=O)c2cccs2)cc1 | inactive: 16.5% |
| O=C(c1ccco1)N1CCCC(c2nc3c(nnn3Cc3ccc(F)cc3)c(=O)[nH]2)C1 (stereo not drawn) | inactive: 5.12% |
| CCCNC(=O)CN1C(=O)NC(CC)(c2ccc(F)cc2)C1=O (stereo not drawn) | inactive: -2.72% |
| CCOC(=O)/C=C1/SCC(=O)N1CC(=O)NC12CC3CC(CC(C3)C1)C2 | inactive: -6.98% |
| COc1ccc(S(=O)(=O)Nc2nc3c(s2)C(=O)CC(C)(C)C3)cc1 | inactive: -26.1% |
| OC(c1cccc(F)c1)c1ncc(-c2ccc(C(F)(F)F)cc2)[nH]1 (stereo not drawn) | inactive: 4.15% |
| CC(C)CNC(=O)[C@H](Cc1ccccc1)NC(=O)c1cccs1 | inactive: 16% |
| CCc1ccc(N2CC(C(=O)OCC(=O)NC3CC3)CC2=O)cc1 (stereo not drawn) | inactive: -5.09% |
| CC(C)c1cc(CN2CCN(Cc3ccc(F)c(F)c3)C(CCO)C2)[nH]n1 (stereo not drawn) | inactive: 3.49% |
| O=C(CCNC(=O)c1ccco1)Nc1nc2ccccc2s1 | inactive: 0.531% |
| CCCCN1CC(O)=C(c2nc3ccccc3[nH]2)C1=N | inactive: 18.2% |
| CCOC(=O)N1CCN(C(=O)c2cc(COc3ccc4ncccc4c3)on2)CC1 | inactive: 1.21% |
| O=C(COC(=O)c1ccc(Br)o1)Nc1ncc(Cl)cc1Cl | inactive: 11.6% |
| COC(=O)c1cnc(NC(=O)C2(C)CCN2C(=O)C(C)C)s1 (stereo not drawn) | inactive: 11.6% |
| CN(CC(=O)Nc1cccc(F)c1)CC(=O)Nc1ccccc1-c1ccccc1 | inactive: 16.8% |
| COc1ccccc1NC(=O)NC(=O)c1ccccc1 | inactive: 11.8% |
| CCOc1cc(/C=C(\C#N)C(=O)Nc2cccc(C(=O)O)c2)ccc1OCc1ccc(Br)cc1 | inactive: -0.944% |
| COc1ccc(C=NNc2ccc([N+](=O)[O-])cc2S(=O)(=O)Nc2ccccc2C(=O)O)cc1OC | inactive: 16.2% |
